# Results: PubChem BioAssay AID504339 (National Center for Advancing Translational Sciences (NCATS), 2011)
# Among all 390,000 compounds or so, about 17,000 (4.4%) were called active. Inconclusive results, whose numbers are uncertain, are shown with a selection of clear calls. The call rests on the fitted dose curve; in most records, active means well fitted inhibition curve with a large enough effect; inconclusive means small, poorly fitted or top-dose-only effect; inactive means no such curve, though single readings can be large or run the other way. Potencies of inconclusive entries are doubtful fits and often do not repeat.
# Molecular target: Lysine-specific demethylase 4A (Homo sapiens) (UniProt O75164)
# Assay: qHTS Assay for Inhibitors of JMJD2A-Tudor Domain; further: nearly all actives have a fitted effect of over 50% in size
# Conditions: AlphaScreen JMJD2A-Tudor / H3K4me3 peptide binding; activity change, negative = inhibition: at 114 µM (top of the series)
# On the % scale 0 is the no-effect control and ±100 the full control effect; potency means the concentration at half of the fitted maximal effect; tags describe the fitted curve by direction and shape.
# UniProt O75164, sequence (O75164 whole entry, looked up, the tested form may be a part): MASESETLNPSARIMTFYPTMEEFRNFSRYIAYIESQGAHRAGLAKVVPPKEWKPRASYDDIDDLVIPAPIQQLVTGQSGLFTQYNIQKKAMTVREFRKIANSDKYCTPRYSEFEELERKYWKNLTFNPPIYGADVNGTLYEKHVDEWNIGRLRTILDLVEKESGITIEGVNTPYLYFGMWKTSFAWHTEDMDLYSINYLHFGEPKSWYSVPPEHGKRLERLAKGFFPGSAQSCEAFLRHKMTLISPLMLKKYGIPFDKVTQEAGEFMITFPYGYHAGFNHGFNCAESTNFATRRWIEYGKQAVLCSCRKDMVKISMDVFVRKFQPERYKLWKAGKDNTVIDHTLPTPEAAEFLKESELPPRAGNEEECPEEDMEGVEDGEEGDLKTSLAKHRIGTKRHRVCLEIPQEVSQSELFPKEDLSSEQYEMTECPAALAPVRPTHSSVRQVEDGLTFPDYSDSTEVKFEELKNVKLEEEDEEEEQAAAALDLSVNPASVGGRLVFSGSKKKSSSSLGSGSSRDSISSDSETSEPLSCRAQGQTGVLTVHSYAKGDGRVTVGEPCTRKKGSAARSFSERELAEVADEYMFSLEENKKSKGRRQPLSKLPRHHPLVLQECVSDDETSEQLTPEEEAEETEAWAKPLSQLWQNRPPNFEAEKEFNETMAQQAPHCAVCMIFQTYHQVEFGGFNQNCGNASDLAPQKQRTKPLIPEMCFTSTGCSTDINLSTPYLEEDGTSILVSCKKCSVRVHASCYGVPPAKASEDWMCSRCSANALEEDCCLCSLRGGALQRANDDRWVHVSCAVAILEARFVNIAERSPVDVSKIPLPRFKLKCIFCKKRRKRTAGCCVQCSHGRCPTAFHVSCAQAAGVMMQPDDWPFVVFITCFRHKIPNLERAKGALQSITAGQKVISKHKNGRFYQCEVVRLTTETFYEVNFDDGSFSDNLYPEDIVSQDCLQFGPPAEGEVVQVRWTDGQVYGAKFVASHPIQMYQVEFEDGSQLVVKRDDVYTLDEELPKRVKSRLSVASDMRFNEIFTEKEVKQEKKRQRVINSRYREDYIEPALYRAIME
SMILES,Potency,"activity change, negative = inhibition"
COc1cc(/C=C\C(=O)NCc2ccc3c(c2)cc(C)n3C)cc(OC)c1OC,"inconclusive: 56.2 µM [inhibitor, partial curve]",
Nc1cc2c([N+](=O)[O-])cccc2o1,inactive,
Cc1ccc(C)c(CN2C(=O)c3ccccc3S(=O)(=O)c3ccc(C(=O)N(C)C4CCCCC4)cc32)c1,inactive,
Cc1ccc2[nH]c3c(c2c1)CN(C(=O)CN1CCN(Cc2ccc4c(c2)OCO4)CC1)CC3,active: 50.1 µM,
O=C(COc1ccccc1)NCCSCc1ccco1,"inconclusive: 79.4 µM [inhibitor, partial curve]",
CC(/C=N/NC(=O)c1ccco1)=C\c1ccccc1,"inconclusive: 100 µM [inhibitor, single point]",
Cc1cccc(N/C=C(\[N+](=O)[O-])S(=O)(=O)c2ccccc2)c1,"inconclusive: 28.2 µM [inhibitor, single point]",
Cc1onc(-c2ccccc2)c1C(=O)OCc1nnc(-c2ccc([N+](=O)[O-])cc2)o1,"inconclusive: 39.8 µM [inhibitor, partial curve]",
COc1ccc(N2CCN(C(=O)c3ccc(C)cc3)CC2)c([N+](=O)[O-])c1,"inconclusive: 50.1 µM [inhibitor, partial curve]",
CCCc1cc(-c2n[nH]c(=S)n2-c2cccc(C)c2)cs1,"inconclusive: 28.2 µM [inhibitor, partial curve]",
COc1ccccc1NC(=O)c1cnc(SCC(=O)NCC2CCCO2)n(C)c1=O (centres undefined),inactive,
CCOC(=O)c1c(NC(=O)c2ccncc2)sc(C)c1C,inactive,
C/C(=C\C(=O)c1ccc(C)o1)Nc1ccc(C(=O)O)cc1C,active: 28.2 µM,
COc1ccc(C2C(C(=O)c3ccc(C)o3)=C(O)C(=O)N2Cc2cccnc2)cc1OC (centres undefined),active: 20 µM,
COc1ccc(C(=O)Nc2ccc(-c3n[nH]c(=S)o3)cc2)cc1,"inconclusive: 56.2 µM [inhibitor, partial curve]",
N/C(=N/O)c1ccccc1N1CCC(Cc2ccccc2)CC1,"inconclusive: 14.1 µM [inhibitor, full curve, poor fit]",
COc1cc(C(=O)Nc2ccc(Nc3ccccc3)cc2)cc(OC)c1OC,"inconclusive: 50.1 µM [inhibitor, partial curve]",
CCc1c(C(=O)OCc2ccccc2)[nH]c(C)c1C,"inconclusive: 44.7 µM [inhibitor, partial curve, poor fit]",
CN(c1cccc(NC(=O)c2ccc(N(C)S(=O)(=O)c3ccccc3)cc2)c1)S(C)(=O)=O,"inconclusive: 14.1 µM [inhibitor, full curve]",
COc1ccc(Cl)cc1NC(=O)Cc1ccc(NC(=O)N2CCCCc3ccccc32)cc1,inactive,
COc1ccccc1NC(=O)C(=O)NCC(c1ccc2c(c1)OCO2)N1CCOCC1 (centres undefined),"inconclusive: 3.98 µM [inhibitor, full curve, poor fit]",
O=C(O)Cc1ccc(N=Nc2c(O)c(C(=O)O)cc3ccccc23)cc1,active: 56.2 µM,
Cc1noc(C)c1CSCC(=O)Nc1nc2ccc(F)cc2s1,inactive,

SMILES,Potency,"activity change, negative = inhibition"
COCC(=O)Nc1cc(C)cn(Cc2c(F)cccc2Cl)c1=O,"inconclusive: 15.8 µM [inhibitor, partial curve, poor fit]",
COc1ccc(OC)c(CN2CCC(Cc3ccccc3)CC2)c1,active: 50.1 µM,
CC(C)N1CCN(c2ccc(OC[C@H]3CO[C@](Cn4cncn4)(c4ccc(Cl)cc4Cl)O3)cc2)CC1,"inconclusive: 50.1 µM [inhibitor, partial curve]",
N#CCCN(Cc1cccnc1)C(=O)c1ccc(S(=O)(=O)N2CCOCC2)cc1,,inactive: -9.59% [at 11.4 µM]
O=C(CCl)N1c2ccccc2OCC1c1ccccc1 (centres undefined),"inconclusive: 89.1 µM [inhibitor, single point]",
COc1ccc(C(=O)NC(=S)Nc2ccc(CN3CCCCC3)cc2)cc1Cl,"inconclusive: 50.1 µM [inhibitor, partial curve]",
COC(=O)CCC(=O)OC1(C)C(=O)C=C2C=C3CCCN3C=C2C1=O (centres undefined),"inconclusive: 79.4 µM [inhibitor, partial curve]",
Cc1ccc2c(c1)-c1c(cnn1CC(=O)O)CO2,inactive,
Cc1ccc(S(=O)(=O)N/N=C\c2cn(CC(N)=O)c3ccccc23)cc1C,inactive,
CC1CCC(NCC(=O)Nc2cccc(S(N)(=O)=O)c2)CC1 (centres undefined),active: 22.4 µM,
COc1ccc(N2CCN(C(=O)C3CCN(S(=O)(=O)c4cccs4)CC3)CC2)cc1,"inconclusive: 10 µM [inhibitor, full curve]",
Cc1cccc(N2CCN(c3ccc(NC(=O)/C=C(/C(=O)O)c4ccccc4)cc3)CC2)c1,"inconclusive: 44.7 µM [inhibitor, partial curve, poor fit]",
Cn1nc(-c2ccc(NCCO)c([N+](=O)[O-])c2)c2ccccc2c1=O,inactive,
O=C1C(=O)N(CCCO)C(c2ccc(Br)cc2)/C1=C(\O)c1ccc(Br)cc1 (centres undefined),inactive,
COc1ccc(NC(=O)c2nc3ccccc3s2)cc1,inactive,
COc1ccc(N2CCN(C(=O)COC(=O)[C@@H](NC(=O)OCc3ccccc3)C(C)C)CC2)cc1,"inconclusive: 44.7 µM [inhibitor, partial curve]",
Cc1ccc(CN2CCSc3ccc(C(=O)N4CCN(c5ccccc5)CC4)cc32)cc1,"inconclusive: 70.8 µM [inhibitor, partial curve, poor fit]",
COc1ccccc1Nc1nc(N)nc(CN2CCCCCC2)n1,,inactive: -16.8% [at 11.4 µM]
COc1cccc(-c2cc(C(=O)Nc3cc(Cl)ccc3O)on2)c1,"inconclusive: 35.5 µM [inhibitor, full curve]",
CCOC(=O)c1c(C)[nH]c(C)c1C(=O)CSc1nc2ccccc2c(=O)n1-c1ccc(F)cc1,"inconclusive: 39.8 µM [inhibitor, partial curve]",
CCN(CCNC(=O)C1CCN(S(=O)(=O)c2cccc3cccnc23)CC1)c1ccccc1,"inconclusive: 63.1 µM [inhibitor, partial curve]",
CC(C)c1cc(C(=O)N/N=C/c2cccnc2)n[nH]1,inactive,
NCCNc1ccc([N+](=O)[O-])c(Sc2nc3ccccc3[nH]2)c1,"inconclusive: 44.7 µM [inhibitor, partial curve]",

SMILES,Potency,"activity change, negative = inhibition"
Cc1cc2cc(CNC(=O)c3cccs3)ccc2n1C,"inconclusive: 44.7 µM [inhibitor, partial curve]",
O=[N+]([O-])c1cc(/C=N/n2c(-c3cccnc3)n[nH]c2=S)ccc1Cl,active: 39.8 µM,
COc1ccc(-n2cnnc2SCC(=O)c2ccc(S(=O)(=O)N3CCOCC3)cc2)cc1,inactive,
COc1cc(C2/C(=C(\O)c3ccc4c(c3)CC(C)O4)C(=O)C(=O)N2CCN2CCOCC2)cc(OC)c1OC (centres undefined),"inconclusive: 20 µM [inhibitor, partial curve, poor fit]",
NC(=O)CC(NC(=O)c1ccccc1)c1ccc(N2CCC(Cc3ccccc3)CC2)c([N+](=O)[O-])c1 (centres undefined),"inconclusive: 63.1 µM [inhibitor, partial curve, poor fit]",
COc1ccc(N2CCN(C(=O)c3cccc(F)c3)CC2)c([N+](=O)[O-])c1,"inconclusive: 56.2 µM [inhibitor, partial curve]",
COc1ccc(OCC(=O)OC2CCN(C)CC2)cc1,inactive,
Cc1sc2ncnc(SCC(=O)Nc3cccc(S(N)(=O)=O)c3)c2c1C,"inconclusive: 25.1 µM [inhibitor, partial curve]",
C/C(=N/NS(=O)(=O)c1ccc(C)c(C)c1)c1ccncc1,inactive,
CS(=O)(=O)N1CC(C(=O)O)Oc2ccc(CC(=O)O)cc21 (centres undefined),"inconclusive: 22.4 µM [inhibitor, full curve, poor fit]",
Cc1ccc(-n2c(=O)cc(N3CCN(C(=O)c4ccco4)CC3)[nH]c2=O)cc1,inactive,
Cc1ccc(/C=N/n2c(-c3cccnc3)n[nH]c2=S)o1,active: 5.01 µM,
COc1ccc(OC)c(CN2CCCCCC2)c1,active: 14.1 µM,
NS(=O)(=O)c1ccc(NC(=S)NC(=O)c2ccco2)cc1,active: 25.1 µM,
CCOc1ccccc1N1CCN(c2nc3ccccc3nc2C(C#N)C(=O)OC(C)C)CC1 (centres undefined),"inconclusive: 25.1 µM [inhibitor, partial curve]",
CCc1ccc(CN(C)CCc2ccccn2)cc1,active: 3.98 µM,
Cc1cc(N2CCN(c3ccccc3)CC2)n2cc(-c3ccccc3)nc2n1,"inconclusive: 35.5 µM [inhibitor, partial curve]",
CCOC(=O)N1CCN(S(=O)(=O)c2ccc(C(=O)NNc3nc4c(C)cc(C)cc4s3)cc2)CC1,"inconclusive: 22.4 µM [inhibitor, full curve]",
O=c1[nH]c(S)nc2sc3c(c12)CCCC3,active: 25.1 µM,
Cc1ccc(C)c(NC(=O)CN2C(=O)CCc3ccccc32)c1,"inconclusive: 50.1 µM [inhibitor, partial curve]",
Cc1ccc(S(=O)(=O)N(CC(O)Cn2c3ccccc3c3ccccc32)c2cccc(C(N)=O)c2)cc1 (centres undefined),"inconclusive: 22.4 µM [inhibitor, full curve, poor fit]",
CCCC(=O)N1CCN(c2ccc(NC(=O)c3cccs3)cc2)CC1,"inconclusive: 15.8 µM [inhibitor, single point]",
COc1ccc(N2C(=O)C(Cl)=C(Nc3c(C)n(C)n(-c4ccccc4)c3=O)C2=O)cc1,"inconclusive: 100 µM [inhibitor, single point]",
